The whole screen tested about 280,000 compounds, of which about 1,100 (0.39%) were called active. The inconclusive results got no clear call from the source; some entries with a clear call stand among them for comparison. Calls follow the shape of the dose curve; as a rule, active = well fitted inhibition curve with a large enough effect; inconclusive = small, poorly fitted or top-dose-only effect, or effect the other way; inactive = flat fitted curve, though single readings scatter. Where the call is inconclusive, the potency comes from a doubtful curve fit.
Target: Microtubule-associated protein tau (Homo sapiens) (UniProt P10636)
Experiment: qHTS for Inhibitors of Tau Fibril Formation, Fluorescence Polarization; also: nearly all actives have a fitted effect of over 55% in size
Conditions: K18 P301L tau heparin fibrillization, Alexa594 FP, 6 h; series mostly up to 57.7 µM
In short: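 FP of Alexa 594-tau after heparin (20 uM) induction. Substrate: human K18 P301L, 15 uM unlabeled, 0.24 uM labeled. Buffer 100 mM sodium acetate pH 7. 6 hr, 37 C.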
% is scaled to controls: 0 for no effect and ±100 for the full control effect; potency is read from the fitted curve at half-maximal effect; tags tell the direction and shape of the fitted curve.

UniProt P10636, sequence (P10636 whole entry, looked up): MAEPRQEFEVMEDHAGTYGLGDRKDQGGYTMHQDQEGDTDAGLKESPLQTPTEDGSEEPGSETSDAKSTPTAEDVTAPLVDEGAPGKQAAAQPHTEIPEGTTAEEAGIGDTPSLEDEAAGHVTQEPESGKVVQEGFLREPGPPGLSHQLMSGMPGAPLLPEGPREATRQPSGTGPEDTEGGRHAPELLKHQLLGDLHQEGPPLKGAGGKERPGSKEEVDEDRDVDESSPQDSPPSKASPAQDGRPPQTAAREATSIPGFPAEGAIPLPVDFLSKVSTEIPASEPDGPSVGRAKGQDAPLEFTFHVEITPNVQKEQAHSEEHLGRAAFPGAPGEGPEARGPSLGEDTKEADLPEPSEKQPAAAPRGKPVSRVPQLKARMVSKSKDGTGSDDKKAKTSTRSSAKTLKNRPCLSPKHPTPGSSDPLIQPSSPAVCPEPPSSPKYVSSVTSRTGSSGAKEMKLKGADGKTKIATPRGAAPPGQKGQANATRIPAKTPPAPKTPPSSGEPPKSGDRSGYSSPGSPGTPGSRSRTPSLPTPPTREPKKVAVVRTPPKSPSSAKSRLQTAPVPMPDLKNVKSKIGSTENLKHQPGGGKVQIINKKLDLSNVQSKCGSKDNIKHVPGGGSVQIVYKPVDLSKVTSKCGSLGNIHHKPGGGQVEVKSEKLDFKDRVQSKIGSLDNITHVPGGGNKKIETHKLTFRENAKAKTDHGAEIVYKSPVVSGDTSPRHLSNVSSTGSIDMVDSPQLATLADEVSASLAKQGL

Potency, inactive:
Cc1cc(C(=O)CSc2nc3ccc(Cl)cc3[nH]2)c(C)n1CC1CCCO1 (stereo not drawn)
CCCCCn1c(=O)[nH]c2cc(C(=O)N3CCN(c4cccc(C)c4)C(C)C3)ccc2c1=O (stereo not drawn)
CCOc1cc(/C=C/C(=O)c2ccc(C)cc2)ccc1OCC(=O)N(C)C
CCOC(=O)c1cc(NC(=O)c2ccc(C)cc2)c(=O)n2c1oc1ccc(Cl)cc12
COC(=O)c1ccc(NC(=O)c2cc(=O)c3ccc(C)cc3o2)cc1
COC(=O)C1=NN(N=O)C2(CC(=O)N(c3cc(C)cc(C)c3)C2=O)C1 (stereo not drawn)
O=C(c1c[nH]c(C(=O)C(Cl)(Cl)Cl)c1)c1ccccc1Br
COC(=O)CCc1sc(Nc2ccccc2)nc1-c1ccc(OC)cc1
CC(=O)c1ccc(N/N=C(/C(N)=O)C2=NC(C)(C)Cc3ccccc32)cc1
CC(C)c1ccc(NC(=O)c2cccc3c2C(=O)N(C2CCCCC2)C3)cc1
Cn1c(C(=O)Nc2ccc3c(c2)OCCO3)cc2sccc21
OCC1(CCOc2ccccc2)CCN(C2Cc3ccccc3C2)CC1
Cc1ccc(OCC(=O)NC2CC(C)(C)NC(C)(C)C2)cc1C
O=C(OCC(=O)c1ccc[nH]1)c1ccccc1

Potency, active:
CCN(CC)c1ccc(N=Cc2ccc([N+](=O)[O-])o2)cc1 11.2 µM
COc1ccc([C@H]2Oc3cc(O)cc(O)c3C(=O)C2[C@@H]2C(=O)c3c(O)cc(O)cc3O[C@@H]2c2ccc(OC)cc2)cc1 (stereo partly drawn) 17.8 µM

Potency, inconclusive:
O=C(CNC(=O)c1ccccc1)OC(C(=O)Nc1cc(C(F)(F)F)ccc1Cl)c1ccccc1 (stereo not drawn) 25.1 µM [inhibitor, partial curve]
Cc1nc(N2CCOCC2)sc1C(=O)NN 17.8 µM [inhibitor, single point]
CCOC(=O)c1sc(NC(=O)c2cccc(S(=O)(=O)N(CC)CC)c2)cc1C 35.5 µM [inhibitor, partial curve]
COc1ccc(NC(=O)c2nc[nH]c2C(=O)N[C@@H](C)c2ccccc2)cc1 22.4 µM [inhibitor, partial curve]
COc1ccc(C)cc1NC(=O)C(OC(=O)c1ccc(Cl)c(S(=O)(=O)N(C)c2ccccc2)c1)c1ccccc1 (stereo not drawn) 28.2 µM [inhibitor, partial curve, poor fit]
O=C(CSc1nc2c(c(=O)[nH]1)CN(Cc1ccc3c(c1)OCO3)CC2)Nc1cccc(Cl)c1 7.08 µM [activator, partial curve, poor fit]
CS(=O)(=O)c1ncc(Cl)c(C(=O)Nc2ccc(N3CCOCC3)cc2)n1 2 µM [activator, partial curve, poor fit]
CC[C@H]1C(c2ccc(F)cc2)=NN(c2ccccc2)[C@@H]1CO 7.08 µM [activator, partial curve]
O=C(/C=C/c1cn(-c2ccccc2)nc1-c1ccc2c(c1)OCCO2)NCCO 14.1 µM [inhibitor, partial curve, poor fit]
Cc1cc(C)n(-c2ccc(C(=O)OCC(=O)Nc3ccc(S(=O)(=O)N4CCCCC4)cc3)cc2)n1 1 µM [inhibitor, full curve, poor fit]
COc1ccc(NS(=O)(=O)c2cc(OC)ccc2NC(=O)c2cc(C)oc2C)cc1 35.5 µM [inhibitor, single point]
Cc1cccc(NCC(=O)N/N=C\c2c[nH]c3ccccc23)c1 5.01 µM [activator, partial curve]
Cc1c(/C=N/NC(=O)CNc2ccccc2)c2ccccn2c1C(=O)c1ccncc1 39.8 µM [activator, single point]
Fc1c(F)c(F)c(N/N=C/c2c[nH]c3ccccc23)c(F)c1F 39.8 µM [inhibitor, single point]
Cc1cccc(C(=O)NC(=S)Nc2ccccc2C(F)(F)F)c1 3.16 µM [inhibitor, partial curve]
Cc1cc(/C=N/NC(=O)c2cccc([N+](=O)[O-])c2)c(C)n1-c1ccccc1 39.8 µM [activator, single point]
CCOC(=O)Cc1c(C)c2ccc(N(CC)CC)cc2oc1=O 15.8 µM [inhibitor, partial curve]
Cc1[nH][nH]c(=O)c1C(c1ccc(-c2cccc(C(=O)O)c2)o1)c1c(C)[nH][nH]c1=O 31.6 µM [inhibitor, partial curve]
CC(CCc1ccccc1)NC(=O)c1ccc(NC(=O)c2cccc(Br)c2)cc1 (stereo not drawn) 12.6 µM [inhibitor, partial curve]
Cc1nn(C)c(C)c1NC(=O)Nc1ccc(Cl)c(Cl)c1 35.5 µM [inhibitor, partial curve, poor fit]
O=c1[nH]c2cc3c(cc2cc1CN(Cc1cccs1)Cc1nnnn1Cc1ccco1)OCCO3 39.8 µM [inhibitor, single point]
COC(=O)c1ccccc1NC(=O)c1c(NC(=O)c2ccco2)sc2c1CCC(C(C)(C)C)C2 (stereo not drawn) 20 µM [inhibitor, partial curve]
O=c1[nH]c(-c2ccncc2)nc2ccccc12 20 µM [inhibitor, single point]
COc1cccc(-n2nnc3c(=O)n(Cc4ccccc4Cl)cnc32)c1 17.8 µM [inhibitor, partial curve, poor fit]
CN1C2C=C3C(C#N)=C(N)C(C#N)(C#N)[C@@H](c4ccsc4)[C@@H]3C1CC2 (stereo partly drawn) 39.8 µM [inhibitor, single point]
CNC(=O)CC(C(=O)O)c1ccc(OCC(C)C)cc1 (stereo not drawn) 44.7 µM [inhibitor, single point]

activity, negative = inhibition, inactive:
Cc1cccc(OCC(=O)N/N=C\c2cn(C)c3ccccc23)c1 3.79% [at 2.34 µM]
